Inconclusive results, whose numbers are uncertain, are shown with a selection of clear calls. A potency beside an inconclusive call is a rough fit, not a confirmed value. Active and inactive are the calls of the source. The call rests on the fitted dose curve; in most records, active means well fitted inhibition curve with a large enough effect; inconclusive means small, poorly fitted or top-dose-only effect; inactive means no such curve, though single readings can be large or run the other way.
Test: qHTS for Inhibitors of ATXN expression: Validation (AID 588378); further: nearly all actives have a fitted effect of over 75% in size
Conditions: cell-based ATXN2 expression reporter assay, luminescence; series mostly up to 57.1 µM; activity change, negative = inhibition: at the top concentration
Source text: Spinocerebellar ataxia type 2 (SCA2) is a multisystem neurodegenerative disease caused by a dominantly-acting mutation leading to expansion of a polyQ domain in the ataxin-2 protein (ATXN2). SCA2 patients develop progressive ataxia and later lose function in other neuronal systems. Prominent parkinsonian signs develop in some patients. Similar to many neurodegenerative disorders, no symptomatic or disease-modifying treatments are known.
The primary objective of project is to identify compounds inhibiting ATXN2 expression and to test them for efficacy in SCA2 mouse models. To this end, in a collaboration between Dr. Daniel Scoles and scientists at NCGC, a cell-based assay adapted to high-throughput screening has been developed to screen the NIH Molecular Libraries Small Molecule Repository (MLSMR).
NIH Chemical Genomics Center [NCGC]
NIH Molecular Libraries Probe Centers Network [MLPCN]
Assay Submitter (PI): Stefan Pulst and Daniel Scoles, University of Utah
4 ul of HEK293-ATXN2-FFLuc cell suspension (TBD cells/microL in phenol-red free DMEM) are dispensed into Greiner white solid bottom 1536-well assay plates, yielding a final well density of TBD cells/well. Plates are incubated for 2 hrs at 37 degrees C in 5% humidified CO2 to allow cell attachment. Compounds are then transferred via Kalypsys pin tool equipped with 1536-pin array (10nl slotted pins, V&P Scientific, San Diego, CA). In addition, duplicate serial dilutions of the control compounds ChemBridge 5553825, a previously identified ATXN2 expression inhibitor, and a known luciferase inhibitor, are pin-transferred. After incubation at 37 degrees C in 5% humidified CO2 for 24 hrs, CellTiter-Fluor reagent (1 ul) (Promega, Madison, WI) is then added and plates are incubated for 30 minutes, before being transferred to a ViewLux high-throughput CCD imager (PerkinElmer), wherein single end-point fluorescence measurements are acquired using the 405 nm excitation/525 nm emission filter set to assess cell viability. Next, Bright-Glo luciferase substrate detection reagent (3 ul) (Promega, Madison, WI) is added to each well and incubated for an additional 5 minutes. Luminescence is then measured on the ViewLux imager equipped with a clear emission filter using a 2 sec exposure.
On the % scale 0 is the no-effect control and ±100 the full control effect; potency means the concentration at half of the fitted maximal effect; tags describe the fitted curve by direction and shape.

Row | SMILES | Potency | activity change, negative = inhibition
1 | CC(C)N(CCC(=O)c1ccc2ccccc2c1)Cc1ccccc1 | inconclusive: 39.8 µM [inhibitor, single point] | 
2 | COc1ccc(CN(CCN(C)C)c2ccccn2)cc1 | inconclusive: 31.6 µM [inhibitor, single point] | 
3 | CCNC(=O)N1CCN(CCCC(c2ccc(F)cc2)c2ccc(F)cc2)CC1 | inconclusive: 22.4 µM [inhibitor, single point] | 
4 | COc1ccc(CCN(C)CCCC(C#N)(c2cc(OC)c(OC)c(OC)c2)C(C)C)cc1OC (stereo not given) | inconclusive: 35.5 µM [inhibitor, single point] | 
5 | Cc1cn[nH]c1 |  | inactive: 22.6%
6 | C=CCc1ccccc1OCC(O)CNC(C)C (stereo not given) | inconclusive: 31.6 µM [inhibitor, single point] | 
7 | CN(C)CC/C=C1\c2ccccc2COc2ccccc21 | inconclusive: 22.4 µM [inhibitor, partial curve] | 
8 | CCOC(=O)C1=C(C)NC(C)=C(C(=O)OC)C1c1cccc(Cl)c1Cl (stereo not given) | inconclusive: 28.2 µM [inhibitor, single point] | 
9 | CN1CCN(CCCN2c3ccccc3Sc3ccc(C(F)(F)F)cc32)CC1 | inconclusive: 17.8 µM [inhibitor, partial curve, poor fit] | 
10 | COC(=O)C1=C(C)NC(C)=C(C(=O)OCCN(C)Cc2ccccc2)C1c1cccc([N+](=O)[O-])c1 (stereo not given) | active: 35.5 µM | 
